Measured values as given in PubChem BioAssay AID1345083 (National Center for Advancing Translational Sciences (NCATS), 2018).
Screen size: about 94,000 compounds; about 6,200 (6.6%) were called active. This list was built around the results that the source calls inconclusive (neither active nor inactive); the mix of calls is not that of the screen. Calls come from the whole dose curve; as a rule, active = well fitted inhibition curve with a large enough effect; inconclusive = small, poorly fitted or top-dose-only effect; inactive = flat fitted curve, though single readings scatter. Where the call is inconclusive, the potency comes from a doubtful curve fit.

Experiment: Cytotoxic Profiling in HEK 293 Cell Line of Diverse Libraries Using Quantitative High-Throughput Screening; note: nearly all actives have a fitted effect of over 60% in size
Conditions: HEK 293 viability, ATP luminescence (CellTiter-Glo), 48-72 h; activity change, negative = cytotoxicity: at 115 µM (top of the series) unless noted; series mostly up to 115 µM
Procedure, shortened: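 HEK 293 seeded at 250 cells/well receive compound via pintool. After 48 or 72 hr at 37 degree Celsius, 5% CO2 and 95% humidity, CellTiter-Glo is dispensed and luminescence read following 10 min at room temperature.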
% is set by controls: 0 for no effect and ±100 for the full control effect; potency is the fitted concentration of half-maximal effect; tags give direction and shape of the fitted curve.

SMILES | Potency | activity change, negative = cytotoxicity | outcome
COc1ccccc1N1CCC(N2CCN(CCCc3ccccc3)C(CCO)C2)CC1 (centres undefined) | inconclusive: 25.1 µM [inhibitor, full curve] | – | –
COc1ccc(NC(=O)O[C@@H]2C=C[C@H](c3c(C)nn(-c4ccc(F)cc4)c3C)C2)cc1 | inconclusive: 79.4 µM [inhibitor, partial curve, poor fit] | – | –
Cc1nnn2c(C(=O)Nc3ccc(F)cc3)cccc12 | inconclusive: 100 µM [inhibitor, partial curve] | – | –
Cc1nc([C@H]2CCN(Cc3ccc(F)cc3F)C[C@H]2NC(=O)C2CCOCC2)n[nH]1 | – | inactive: -4.23% | –
O=C(CC1C(=O)NCCN1CC(c1ccccc1)c1ccccc1)NCc1ccco1 (centres undefined) | – | inactive: -33.9% | –
O=[N+]([O-])c1ccc(-c2ncc[nH]2)cc1 | inconclusive: 141 µM [inhibitor, partial curve, poor fit] | – | –
COc1ccccc1-c1cc(C(=O)NCc2cccc(Cl)c2)nn2cccc12 | active: 44.7 µM | – | –
Cc1cnc(-c2cccnc2)n1C1CCCN(C(=O)c2cnccn2)C1 (centres undefined) | – | inactive: 1.46% | –
COc1ccccc1-c1cccc(C(=O)N2CCC[C@H]2C(=O)NCc2cccc(Cl)c2)c1 | inconclusive: 56.2 µM [inhibitor, partial curve, poor fit] | – | –
CCN(C(=O)CN1C(=O)NC(c2ccc(Cl)cc2)C2=C1COC2=O)c1ccccc1 (centres undefined) | inconclusive: 44.7 µM [inhibitor, partial curve, poor fit] | – | –
COCC(=O)N1CCn2c(nn(-c3ccc(C)cc3)c2=O)C1 | – | inactive: -3.46% [at 172 µM] | –
OC1CN(Cc2ccccc2)CCN(Cc2ccc3[nH]ccc3c2)C1 (centres undefined) | inconclusive: 56.2 µM [inhibitor, partial curve, poor fit] | – | –
COc1ccc(C(=O)N2[C@@H]3CC[C@H]2CC(NC(=O)c2ccncc2)C3)cn1 (some centres undefined) | – | inactive: -6.29% | –
Cc1nn(-c2ccccc2)c2c1C(C)N(CC1CN(Cc3ccc(F)cc3)C1)C2=O (centres undefined) | inconclusive: 39.8 µM [inhibitor, full curve, poor fit] | – | –
COCCNC(=O)C1(C)CCc2cnc(Nc3ccccc3)nc21 (centres undefined) | inconclusive: 112 µM [inhibitor, partial curve] | – | –
CC1(C)C[C@H](NC(=O)c2ccc(C#N)cc2)[C@@]2(CCC(=O)NCCc3c[nH]c4ccccc34)CC[C@](C)(O)C[C@@H]12 | inconclusive: 89.1 µM [inhibitor, single point] | – | –
O=C(NCCc1ccccc1)c1ccc2nnc(C3CCCC3)n2c1 | inconclusive: 126 µM [inhibitor, partial curve, poor fit] | – | –
Cc1cc(C)c(CNC(=O)c2nc(-c3ccccc3O)cc3c2ccn3C(C)C)c(=O)[nH]1 | inconclusive: 63.1 µM [inhibitor, full curve, poor fit] | – | –
O=C(NCC1CN(C(=O)Cc2cccc(Cl)c2)CC12CN(c1ccccc1)C2)C1CC1 (centres undefined) | inconclusive: 112 µM [inhibitor, single point] | – | –
COc1ccc(CN2CCCC23Cc2ccccc2N([S+](C)(=O)[O-])C3)cc1 (centres undefined) | inconclusive: 79.4 µM [inhibitor, partial curve] | – | –

SMILES | Potency | activity change, negative = cytotoxicity | outcome
O=C(c1nc2cccnc2n(Cc2ccccc2)c1=O)N1CCN(Cc2ccccc2)CC1 | inconclusive: 79.4 µM [inhibitor, partial curve, poor fit] | – | –
Cc1ccccc1S(=O)(=O)N1CCCC(Cc2noc(-c3ccncc3)n2)C1 (centres undefined) | inconclusive: 50.1 µM [inhibitor, partial curve, poor fit] | – | –
O=C(CCc1ccccc1)NCc1nnc2c(-c3nc(C4CC4)no3)cccn12 | – | – | inactive
CC1Oc2ccc(NC(=O)Cc3ccc(F)cc3)cc2CN(Cc2cc(F)cc(F)c2)C1=O (centres undefined) | inconclusive: 50.1 µM [inhibitor, partial curve, poor fit] | – | –
O=C(CC(c1ccccc1)c1ccc2c(c1)OCO2)N1CCSCC1 (centres undefined) | inconclusive: 89.1 µM [inhibitor, partial curve, poor fit] | – | –
COc1ccc(CCNC(=O)c2cc(-c3ccccc3OC)c3nncn3n2)cc1 | inconclusive: 56.2 µM [inhibitor, partial curve, poor fit] | – | –
Cc1cccc(-c2cccc(CN3CCC(N[S+](=O)([O-])c4cccs4)CC3)c2)c1 | active: 28.2 µM | – | –
CCOC(=O)C1CCN(C(=O)C2COC3(CCC(C)CC3)N2C(=O)c2cccc(C)c2)CC1 (centres undefined) | inconclusive: 89.1 µM [inhibitor, partial curve, poor fit] | – | –
O=C(NC1CCN(c2cc(-c3cccs3)[nH]n2)CC1)c1ccc(F)c(Cl)c1 | inconclusive: 22.4 µM [inhibitor, full curve, poor fit] | – | –
COc1cccc([S+](=O)([O-])N2CCCC(C(=O)N3CCC(c4nc5ncccc5[nH]4)C3)C2)c1 (centres undefined) | inconclusive: 50.1 µM [inhibitor, partial curve, poor fit] | – | –
Cc1nc2ccc(Cc3nc(-c4cccnn4)no3)cc2[nH]1 | – | inactive: -14.4% | –
CCN1Cc2cc3c(cc2N(CC(O)COc2ccccc2)CCC1=O)OCO3 (centres undefined) | inconclusive: 79.4 µM [inhibitor, partial curve, poor fit] | – | –
COC[C@@H]1CN(Cc2ccc(OC)cc2OC)C[C@H]1c1nc(C)no1 | inconclusive: 31.6 µM [inhibitor, single point] | – | –
CCn1c2c(c(=O)n1Cc1ccccc1)CCN(C(=O)C(C)C)C2 | – | – | inactive [at 172 µM]
O=C(c1ccco1)N1CCCC(c2noc(COc3ccccc3)n2)C1 (centres undefined) | inconclusive: 50.1 µM [inhibitor, partial curve, poor fit] | – | –
Cc1cnc(CC2CCN(S(=O)(=O)c3cccc(F)c3)C2)n1C(C)C (centres undefined) | inconclusive: 44.7 µM [inhibitor, partial curve, poor fit] | – | –
N#Cc1cccc(CN2Cc3[nH]cnc3C[C@H]2c2nc(-c3ccccc3)no2)c1 | active: 89.1 µM | – | –
O=C(c1ccc(N2CC3CC(C2)[C@H]2CCCC(=O)N2C3)nc1)N1CCN(c2ccccc2)CC1 (some centres undefined) | inconclusive: 89.1 µM [inhibitor, partial curve, poor fit] | – | –
O=C(Nc1ccc(F)cc1F)C1(CCO)CCN(c2ncccn2)C1 (centres undefined) | inconclusive: 100 µM [inhibitor, single point] | – | –
